Several values for one entry are separate records, joined by “and”; a condition that tells them apart may be missing. Identical values can stand only once. Hit rate of the full screen: of about 50,000 compounds, about 800 (1.6%) showed an effect of 50% or more. The list shows a part of the results.
Each compound was assayed against Bcl-2-like protein 10 (Homo sapiens) (UniProt Q9HD36) (assay: Phenotype converters, Bcl-B/TR3 peptide binding displacement, primary biochemical FP (AID 1240;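 note: 0% = Bcl-B with tracer peptide and DMSO and 100% = tracer peptide lacking Bcl-B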)). Conditions: GST-Bcl-B / FITC-TR3 peptide fluorescence polarization; stronger effect = higher value; compound at 3.75 mg/L.
Sequence of UniProt Q9HD36 (Q9HD36 whole entry, looked up): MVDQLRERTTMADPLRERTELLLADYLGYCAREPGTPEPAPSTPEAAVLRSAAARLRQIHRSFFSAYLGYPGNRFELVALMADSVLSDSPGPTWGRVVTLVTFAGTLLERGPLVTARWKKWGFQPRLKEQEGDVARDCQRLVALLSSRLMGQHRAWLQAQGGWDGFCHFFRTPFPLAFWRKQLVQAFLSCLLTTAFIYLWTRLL

Row | Structure (SMILES) | displacement
1 | CCC(N)C(=O)c1c(C)cc(C)cc1C (configuration not stated) | -14.6%
2 | COc1ccc(C(=O)c2ccc(N3CCNCC3)c(F)c2)cc1Br | -11%
3 | COC(=O)c1cc(NC(C)=O)cc(Br)c1[N+](=O)[O-] | -10.7%
4 | CCc1ccc(CNCCc2ccccc2OC)cc1 | -13.9%
5 | Cc1ccccc1-n1c(=S)[nH]c2ccccc2c1=O | -11% and -8.7%
6 | Cc1cc(OC(C)C(=O)O)c2c3c(c(=O)oc2c1)CCC3 (configuration not stated) | 9.6%
7 | CCC(=O)N(Cc1ccc(OC)c(OC)c1)C1CC(C)N(C)CC1C (configuration not stated) | -3.6%
8 | C=CCc1cc(/C=C2/C(=O)NC(=O)N(C)C2=O)cc(OC)c1O | -6.6%
9 | O=C(COc1ccc([N+](=O)[O-])cc1)Nc1ccc(Br)cc1C(=O)c1ccccc1 | 4.7%
10 | CCCCCn1c(=O)c(C(=O)Nc2ccccc2F)c(O)c2ccccc21 | 3.6%
11 | COC(=O)C1C2C(=O)N(c3ccccc3)C(=O)C12c1ccc(Cl)cc1 (configuration not stated) | -2.3%
12 | COC(=O)CCP(C)(=O)OCC(C)C (configuration not stated) | 16.4%
13 | Cc1ccc(/C=C2/C(=O)NC(=O)N(c3ccc(C(C)C)cc3)C2=O)o1 | 49%
14 | Cc1cc(/C=C2/C(=O)NC(=O)N(C)C2=O)c(C)n1-c1ccccc1 | 49.3%
15 | COc1ccc(N2C(=O)NC(=O)/C(=C/c3ccc(-c4cccc(Cl)c4)o3)C2=O)cc1 | 69%
16 | CCOc1ccc(N2C(=O)NC(=O)/C(=C/c3ccc(C)cc3)C2=O)cc1 | 0.8%
17 | Cc1cc(OCC(=O)c2ccc(Cl)cc2)c2c3c(c(=O)oc2c1)CCC3 | 8.3%
18 | COc1ccc(CN2CCN(C(=O)Cc3ccccc3)CC2)c(OC)c1OC | -13.4%
19 | COc1ccc(C2c3c(c4ccccc4oc3=O)Oc3c2c(=O)oc2ccccc32)cc1Cn1nc(C)c([N+](=O)[O-])c1C | 14.2%
20 | CCNc1cc2oc(=O)cc(C(F)(F)F)c2cc1C | 105%
21 | Cc1cc(OCc2ccc(F)cc2)c2c3c(c(=O)oc2c1)CCC3 | 6.5%
22 | COc1cc(C(c2c(C)[nH]n(-c3ccccc3)c2=O)c2c(C)[nH]n(-c3ccccc3)c2=O)cc(OC)c1OC | -1.7%
23 | CC12CCC(C/C1=N/O)C(C)(C)N2 (configuration not stated) | 10.5%
24 | COc1cccc(CN2CCN(Cc3cc(Br)ccc3O)CC2)c1 | 1.4%

Row | Structure (SMILES) | displacement
25 | O=C(COc1ccc(Cl)cc1)N1CCN(Cc2cccc([N+](=O)[O-])c2)CC1 | 15.3%
26 | N/C(=N\[N+](=O)[O-])N1CCN(C(=O)c2ccc(Cl)cc2)CC1 | 5%
27 | O=[N+]([O-])N(CCCCN(CN1CCOCC1)[N+](=O)[O-])CN1CCOCC1 | -5.3%
28 | O=C1CN(O)C(c2ccccc2Cl)=c2cc(Br)ccc2=N1 | -2.6%
29 | Cc1cccc(-n2c(/C=C\c3ccc(Cl)cc3)nc3ccccc3c2=O)c1 | -5.1%
30 | CCC1(C)CC(CCNCc2ccc(OC)cc2)(c2ccc(OC)cc2)CCO1 (configuration not stated) | 4.6%
31 | CN(C)c1ccc(C=C2C(=O)NC(=O)NC2=O)cc1[N+](=O)[O-] | -0.9%
32 | O=[N+]([O-])c1ccc(NCCc2ccccc2)c2ncccc12 | -1.2%
33 | COc1cc(OC)c(OC)cc1CN1CCN(C(=O)Cc2ccccc2)CC1 | -17.9%
34 | O=Cc1cn(Cc2cccc3ccccc23)c2ccccc12 | -2.4%
35 | Clc1ccc(OCCCn2ccnc2)cc1 | 15.9%
36 | C=CCN1C(=O)/C(=C\C=C\c2ccco2)C(=O)NC1=S | -63.2%
37 | O=C1NC(=O)N(Cc2ccccc2)C(=O)/C1=C\C=C\c1ccco1 | 11.3%
38 | Cc1ccc(NC(=O)C(Cl)(Cl)Cl)cc1Cl | 8.5%
39 | Cc1ccc(N2C(=O)NC(=O)/C(=C\C=C\c3ccccc3)C2=O)cc1 | 21.4%
40 | COc1cccc(CN2CCN(C(=O)Cc3ccccc3)CC2)c1OC | 13.3%
41 | Cc1ccc(-c2nc3ccccc3c(=O)n2-c2ccncc2)cc1 | -3.6%
42 | c1ccc2c(CNC34CC5CC(CC(C5)C3)C4)c[nH]c2c1 | 7.8%
43 | Cc1ccc(-c2ccc(C=C3C(=O)NC(=S)NC3=O)o2)cc1[N+](=O)[O-] | 27.8%
44 | O=[N+]([O-])c1cccc(C2N3CCCN23)c1 (configuration not stated) | -1.2%
45 | COc1ccccc1/C=C1/C(=O)C2CCN1CC2 | 8.7%
46 | COc1ccc(CCNCc2ccco2)cc1 | -4.1%
47 | CCCCOC(=O)COc1cc(C)cc2oc(=O)c3c(c12)CCC3 | 9.5%
48 | Cc1ccc(N2C(=O)NC(=O)/C(=C\c3ccccc3OCc3ccc(C(=O)O)cc3)C2=O)cc1 | -9.2%

Row | Structure (SMILES) | displacement
49 | O=C1C(=Cc2ccc(-c3ccccc3[N+](=O)[O-])o2)C(=O)N(c2ccccc2)C(=S)N1c1ccccc1 | 16.4%
50 | CC(C)OC(=O)N1CCN(/C(N)=N/[N+](=O)[O-])CC1 | 9.5%
51 | COc1ccc(CNCCc2cccc(Cl)c2)cc1OC | -4.2%
52 | COc1cccc(-n2c(/C=C/c3ccc(O)c(O)c3)nc3ccccc3c2=O)c1 | 27.7%
53 | Cc1cc(OCC(N)=O)c2c3c(c(=O)oc2c1)CCC3 | 9.2%
54 | COc1ccccc1-n1c(=S)[nH]c2ccccc2c1=O | -0.1%
55 | N#CC(C#N)=Cc1cccc2ccccc12 | 5.7%
56 | O=[N+]([O-])c1ccc(CCNC2CCCCC2)cc1 | 3.9%
57 | Brc1ccc(CN2CCNCC2)cc1 | -8.5%
58 | CC(C)(C)c1cc(C=C2C(=O)NC(=S)NC2=O)cc(C(C)(C)C)c1O | -4.2%
59 | CCOc1ccc(N2C(=O)NC(=O)/C(=C\c3ccc(C)o3)C2=O)cc1 | 11.6%
60 | COc1ccc(Br)cc1CN1CCN(Cc2ccc(F)cc2)CC1 | 13.7%
61 | C=CCN1C(=O)NC(=O)C(=Cc2cccn2C)C1=O | 9.9%
62 | O=[N+]([O-])c1ccc(CN2CCN(Cc3cccc(Br)c3)CC2)cc1 | -12.8%
63 | O=[N+]([O-])c1ccccc1CNCCc1ccc(F)cc1 | 2.4%
64 | Clc1ccccc1CNCCc1ccc2c(c1)OCO2 | -17.9%
65 | CC(C)CCP(=O)(O)c1ccccc1 | -9.8%
66 | COc1cccc(CNCCc2ccc(Cl)cc2Cl)c1 | 2.7%
67 | CN(C)c1ccc(/C=C/c2nc3ccc(I)cc3c(=O)n2-c2ccccc2)cc1 | 3.9%
68 | O=C(O)C1C2CCC(O2)C1C(=O)Nc1ccc(Cl)cc1 (configuration not stated) | 2.1%
69 | Cc1ccc(N=Cc2c(O)n(C)c(=O)n(C)c2=O)cc1 | 0.5%
70 | O=C(O)[C@H]1C2CCCCC2=C2CCCCC2[C@@H]1c1ccccc1 (some centres not stated) | -0.7%
71 | N#CC(C#N)=Cc1cc([N+](=O)[O-])ccc1Cl | -15%
72 | N/C(=N\[N+](=O)[O-])N/N=C\c1ccc(-c2ccc([N+](=O)[O-])cc2)o1 | -1.4%

Reference: PubChem BioAssay AID1240 (Sanford-Burnham Center for Chemical Genomics, 2008)
